Our source for the Kd, koff and kon values is patent publication US20220000998A1.

The assay deals with SM083P004 (Clostridium tetani).

B1: scFv Y-SM083-p04-H04 (scFv)
scFv: [about 100 residues not shown]YTYGGFPFSSFDYWGQGTLVTVSSGGGGSGGGGSGGGGSDIQMTQSPSSLSASVGDRVTITCRASQSISSYLNWYQQKPGKAPKLLIYAASSLQSGVPSRFSGSGSGTDFTLTISSLQPEDFATYYCQQYRFLSTFGQGTKLEIK
Take B1: the dissociation constant (Kd) amounted to 12 nM, the koff is 0.00045 s⁻¹ and the kon turned out to be 38000 M⁻¹ s⁻¹.

B2: scFv Y-SM083-p04-C04 (scFv)
scFv: [about 100 residues not shown]TPPPSSSRSYLDYWGQGTLVTVSSGGGGSGGGGSGGGGSDIQMTQSPSSLSASVGDRVTITCRASQSISSYLNWYQQKPGKAPKLLIYAASSLQSGVPSRFSGSGSGTDFTLTISSLQPEDFATYYCQQYYPLFTFGQGTKLEIK
B2 showed a Kd of 16 nM, a koff of 0.00062 s⁻¹ and a kon of 38000 M⁻¹ s⁻¹.
